According to the supplement of paper PMC3334620:
The full ranking holds about 33,000 sequences; the median of “E-score (-0.5 to 0.5)” is about -0.012, and the highest 2% start at about 0.27. Some of the results follow.

target: T1, Vhr1 (UniProt P40522); experiment: PBM E-score (8-mer binding enrichment) (E-score (-0.5 to 0.5)); higher = stronger / more preferred TF binding; most listed sequences are background and not binding sites; settings: protein concentration: 200 nM; construct: GST-full length
T1 sequence: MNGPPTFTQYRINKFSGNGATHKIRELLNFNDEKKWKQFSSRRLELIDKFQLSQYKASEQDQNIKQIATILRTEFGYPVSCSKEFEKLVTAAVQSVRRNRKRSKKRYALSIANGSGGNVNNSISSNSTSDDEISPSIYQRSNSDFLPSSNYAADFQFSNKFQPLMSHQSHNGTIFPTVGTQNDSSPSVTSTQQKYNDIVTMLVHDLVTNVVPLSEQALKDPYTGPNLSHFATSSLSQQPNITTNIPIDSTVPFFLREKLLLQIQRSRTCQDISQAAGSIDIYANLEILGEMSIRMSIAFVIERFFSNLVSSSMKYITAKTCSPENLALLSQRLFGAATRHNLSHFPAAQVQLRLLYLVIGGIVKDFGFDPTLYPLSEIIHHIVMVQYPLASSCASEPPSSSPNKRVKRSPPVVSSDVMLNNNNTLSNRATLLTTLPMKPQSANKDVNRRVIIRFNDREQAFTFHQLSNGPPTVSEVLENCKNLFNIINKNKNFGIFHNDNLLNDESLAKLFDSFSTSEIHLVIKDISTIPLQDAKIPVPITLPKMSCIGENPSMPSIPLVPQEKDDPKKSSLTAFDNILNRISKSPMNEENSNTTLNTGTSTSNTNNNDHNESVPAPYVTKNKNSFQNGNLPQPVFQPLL
Procedure, shortened: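 Yeast transcription factors, full-length or as DNA-binding domains, were expressed with a GST tag using PURExpress in vitro transcription/translation. At about 100-200 nM they were applied to universal all-10-mer Agilent arrays, double-stranded by primer extension on fresh or once-stripped slides. Fluorescent anti-GST detected bound protein, and masliner normalised the scans. E-scores for ungapped eight-base words, pooled with reverse complements, came from the Universal PBM Analysis Suite.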

Row | Sequence | PBM E-score
1 | GGTAGTAC | 0.128
2 | GACATCAA | -0.00948
3 | CTCCCGCA | 0.0259
4 | ACCCACCC | 0.397
5 | AGAAAGCA | 0.00516
6 | TGAAAACA | -0.0922
7 | AACACAAG | -0.141
8 | ACTTGTGA | 0.0909
9 | AAGGTATG | 0.0908
10 | ATTCGAGA | -0.0158
11 | GCTGACAA | -0.0645
12 | AAAATCCC | -0.106
13 | CTTGCAAC | 0.0737
14 | ATACAGAG | 0.116
15 | GCCGCAAC | -0.0309
16 | AGTACGTG | -0.063
17 | GGTGCCCA | -0.0839
18 | ATCAACGC | -0.103
19 | CGCGGTCA | 0.197
20 | ACTTACAG | -0.0732
21 | GAACCTAC | -0.0923
22 | ACATCGGG | 0.0983
23 | ACTTAGTA | 0.0996
24 | AAGCCTGA | -0.235
25 | GTACTAGA | 0.0963

Row | Sequence | PBM E-score
26 | AATACGAT | 0.0858
27 | CCGATGCA | -0.0663
28 | CCGGATCA | 0.11
29 | GTTGGCGA | -0.103
30 | CAGTCTCG | -0.238
31 | CTCTACTA | 0.0116
32 | ATACAGGG | 0.164
33 | ATACGCGA | 0.155
34 | CCAGCTAG | -0.114
35 | AGAAGAAG | -0.203
36 | CTCAGGCA | 0.156
37 | CCTGTGCC | -0.158
38 | GATAGCGA | -0.0453
39 | ATACCGCA | 0.222
40 | CTGGTCCA | -0.00784
41 | GAGTTTCA | 0.0998
42 | CCACGCGC | -0.229
43 | GCGTGTAC | 0.0816
44 | CCGTTGTA | 0.119
45 | GATTTCGC | 0.16
46 | AGTGACCC | 0.133
47 | ATTGATCA | -0.0296
48 | AATATCGC | 0.0441
49 | CGCGATTA | 0.162
50 | CCCAAACA | 0.145

Row | Sequence | PBM E-score
51 | GCAGCTAC | -0.0936
52 | AAGATTTA | -0.0338
53 | CGCCTAAA | -0.149
54 | AGGTCAGC | -0.0461
55 | CCCATGCG | -0.0165
56 | TATATCAA | 0.116
57 | CACGCAGC | 0.0559
58 | ATAGATCG | -0.0167
59 | AATACTTG | -0.0248
60 | AGTACGTC | 0.13
61 | CAAGTTAG | -0.00247
62 | CTCTAAAA | -0.188
63 | AGGGTATC | -0.0208
64 | AACACGTC | -0.151
65 | AACAACCT | -0.117
66 | CCGCCACA | 0.185
67 | CTTTTTCC | -0.26
68 | AGATATAT | 0.131
69 | CGCCAACC | -0.156
70 | GGTAGAAA | -0.205
71 | GCATCTCC | 0.0271
72 | ACACTCTC | 0.223
73 | AGCGAAAC | 0.0638
74 | CGGTAGAG | -0.0875
75 | CGGCCCGC | 0.0634

Row | Sequence | PBM E-score
76 | AGGCTGGC | 0.00081
77 | AGAAGCCT | -0.216
78 | GAGGTCGA | 0.0606
79 | GTGGATAA | -0.0412
80 | AAACAACG | -0.00681
81 | AGGCCTTG | -0.23
82 | GCCGTCGA | 0.0723
83 | TCACCCAA | 0.177
84 | CAACCACC | 0.00878
85 | GGCTCCCA | -0.16
86 | ATTGCCGC | -0.0756
87 | ATGGAGGG | 0.111
88 | AAGATGGG | -0.0481
89 | CGTTCTAA | -0.00665
90 | AAAATATC | 0.0289
91 | AGAATAAC | 0.0187
92 | CGGTACAA | -0.0176
93 | AGTCCATG | 0.132
94 | ACCTGAAC | -0.052
95 | GCTGATCC | 0.142
96 | AGTACTCA | 0.171
97 | GTACCGGA | -0.00911
98 | GGGGGTTA | -0.147
99 | CCGGGATA | 0.00258
100 | CGCCGTCC | -0.263

Row | Sequence | PBM E-score
101 | CTATGTGC | 0.108
102 | CGGGCGAC | 0.107
103 | AGTCGTGA | 0.184
104 | CCGGTCTC | -0.00313
105 | AGCATGCG | 0.0279
106 | ACTAGAGA | -0.191
107 | CAAGTGTA | 0.0223
108 | GCGCGCAA | 0.3
109 | CTACTATA | 0.168
110 | ACAAGGAA | -0.00062
111 | ACAATCCC | 0.166
112 | AAGTTGGT | 0.117
113 | AGCACTTG | -0.155
114 | GACTGGTA | 0.24
115 | AAACGCAG | -0.0854
116 | AAGTTCAG | -0.194
117 | CGCTGACC | 0.0181
118 | AGTTAAGA | -0.0696
119 | ACCTTCCC | 0.0308
120 | CTAGCACC | 0.103
121 | GGGGTTAC | -0.154
122 | CTTGGACC | -0.22
123 | CGGGAATA | -0.0266
124 | AGCAGAAC | -0.00038
125 | GACCATAC | 0.0781

Row | Sequence | PBM E-score
126 | GGCGACCC | 0.0702
127 | CGTATTGC | -0.15
128 | ACGTTGGC | -0.0923
129 | GAGGGGCC | -0.0885
130 | CTCCGCCA | -0.0746
131 | CGATCCCG | 0.0117
132 | TATGGTGA | 0.112
133 | GGGACCAA | 0.0312
134 | GCTCAGCC | 0.101
135 | CAAACTAA | 0.102
136 | AAGGATTC | -0.0556
137 | CCTTACAA | -0.27
138 | AGTAGTAG | 0.0116
139 | AATATACT | 0.0364
140 | ACTTGCCC | -0.11
141 | ATAGCCCA | 0.0143
142 | CCCCGCGA | 0.171
143 | CCCTGACA | 0.0436
144 | CGGAGGTC | 0.0655
145 | TACAACGA | 0.0506
146 | CAATTTGA | -0.15
147 | GAGGACAA | -0.189
148 | AGCGTGGC | -0.144
149 | CTGTCGGC | 0.0952
150 | CCAGCTGC | -0.105

Row | Sequence | PBM E-score
151 | GATTTGAC | 0.037
152 | AATCTATG | 0.0433
153 | ATAAGCTC | -0.0861
154 | ACACGCTG | 0.0188
155 | CGAAACCC | -0.0543
156 | CATAGTTA | -0.0405
157 | ACTTCGCT | 0.0552
158 | ATGGATGA | 0.203
159 | ACCTAGTC | 0.0861
160 | AGGGCTAT | -0.308
161 | TCACATCA | 0.158
162 | CCTCATGA | 0.0599
163 | GACCACCC | -0.0289
164 | TACACGAA | 0.171
165 | ATCCGTTG | 0.138
166 | AACGTATG | -0.067
167 | ACCACCCG | -0.0147
168 | CGGGAGAA | 0.0467
169 | AGGAGTTA | -0.0467
170 | TACGGGAA | -0.209
171 | CAAGAGGG | -0.222
172 | AAATTACG | -0.102
173 | ACGAACTG | -0.0868
174 | AGGGATGC | -0.319
175 | ACTATGAC | 0.286

Row | Sequence | PBM E-score
176 | ATTTGTCG | 0.0724
177 | CCTATCCA | -0.0395
178 | CCGGAGCC | 0.137
179 | ATACGATA | 0.136
180 | GCCTGGCC | -0.13
181 | ACCTTGAA | -0.103
182 | GACTATGC | 0.233
183 | AAGCCTTG | -0.11
184 | ACGTAAGT | -0.132
185 | CTCCGACA | 0.0494
186 | ACTCTTGG | 0.0846
187 | AGGCTCTA | -0.332
188 | CCCATCGG | 0.0695
189 | TCAAGAGA | -0.256
190 | ATCGCTCC | -0.234
191 | AGTCATCC | 0.464
192 | CATAAGGA | -0.0229
193 | GCGCGTAC | 0.0989
194 | CAGCCCGG | 0.0685
195 | ATAGGGTG | 0.0417
196 | GTTGGATA | -0.0148
197 | TCATATCA | 0.104
198 | CCATCCAC | 0.185
199 | AACTGATC | 0.157
200 | CCGCAACG | 0.0883

Row | Sequence | PBM E-score
201 | ATTATCAA | 0.193
202 | ACTAATCA | 0.18
203 | CAATTTCG | -0.102
204 | CAGGATCG | -0.0146
205 | AAAGAGAG | -0.309
206 | CCCGGAAA | -0.0328
207 | ACTAGCGC | 0.0141
208 | ACTGGCGA | 0.124
209 | ACGACATC | -0.0989
210 | CACTACCC | 0.106
211 | AATGGAAG | -0.0985
212 | CTGCCGAA | -0.243
213 | ACACCGAG | 0.143
214 | CCTGGAAG | -0.197
215 | ACCTGCCA | -0.0896
216 | GGCTGCAA | 0.0564
217 | ATCCCAGA | -0.258
218 | CCACAGAG | 0.0729
219 | CCAAAACA | -0.0108
